Data: PubChem BioAssay AID1508623 (National Center for Advancing Translational Sciences (NCATS), 2021)
Hit rate of the full screen: of about 48,000 compounds, about 450 (0.94%) were called active. Not shown: some 19% with an inconclusive outcome. Calls come from the whole dose curve; as a rule, active = well fitted inhibition curve with a large enough effect; inconclusive = small, poorly fitted or top-dose-only effect; inactive = no such curve, though single readings can be large or run the other way. This is one part of the list.

Experiment: Primary qHTS for Identification of Small Molecule Inhibitors of Huntingtin Promoter Activity; note: nearly all actives have a fitted effect of over 50% in size
Settings: HEK293 HTT promoter firefly luciferase reporter (activity 0% = vehicle and -100% = no light), 24 h; series mostly up to 57.5 µM; activity change, negative = inhibition: at the top concentration
Outline: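 Quantitative HTS used concentration series of up to 57.5 uM final on HEK293 luciferase reporter cells, 24 h at 37 degrees C. Readout was Dual-Glo firefly luminescence.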

SMILES | activity change, negative = inhibition
Cc1cc(C)cc(Oc2coc3c(CN4CCN(C)CC4)c(O)ccc3c2=O)c1 | inactive: -5.53%
COc1cccc(C(=O)Nc2cc(-c3cn4cccnc4n3)ccc2C)c1OC | inactive: 4.07%
Cc1ccc(OCC(=O)Nc2ccccc2C(=O)OCc2cc(=O)n3nc(C4CC4)sc3n2)cc1 | inactive: -11.1%
Cc1nc2ccccn2c(=O)c1NC(=O)c1c(F)cccc1F | inactive: 1.9%
CC1CCN(C(=O)c2c(NC(=O)c3ccccc3F)sc3c2CCC(C(C)(C)C)C3)CC1 (stereo not given) | inactive: -11.4%
CCn1cc(S(=O)(=O)c2ccc(OC)cc2)c(=O)c2cc(F)c(N3CCC(C)CC3)cc21 | inactive: 7.76%
CNCCCC12CCC(c3ccccc31)c1ccccc12 | inactive
CCCN(CCC)CCCNC(=O)C1CCC(CNS(=O)(=O)c2cccc3nsnc23)CC1 (stereo not given) | inactive: 2.83%
CCCCNS(=O)(=O)c1ccc2nc(-c3cccnc3)cc(C(=O)NCCC)c2c1 | inactive: -19.6%
CC(=CC(=O)Nc1ccccc1C(=O)O)c1ccc2ccccc2c1 | inactive: 8.78%
COCCNC(=O)CSc1c2c(nc3cc(Cl)ccc13)CCCC2 | inactive: -0.812%
NCCNc1cccc2ccccc12 | inactive: -12.4%
NCCCCCc1nnc(SCc2ccc(F)cc2)o1 | inactive: -29.8%
COCCCNC(=O)c1ccc2nc(Cc3ccc(OC)cc3)oc2c1 | inactive: -15.1%
CCCCSc1nnc2n(-c3cccc(C)c3)c(=O)c3c4c(sc3n12)CCCC4 | inactive: -19.2%
COc1ccc(NC(=O)COCc2cc(-c3ccco3)on2)cc1 | inactive: -11.8%
Fc1ccccc1Oc1ncnc2c1oc1ccccc12 | inactive: 14.8%
Clc1ccc(-c2csc(=Nc3ccccc3)n2Cc2ccc3c(c2)OCO3)cc1 | inactive: -11.6%
CCOC(=O)C1CCN(C(=O)CSc2n[nH]c(-c3ccccc3)n2)CC1 | inactive: 0.615%
Cc1cccc(OCc2nc(C#N)c(NCc3ccccc3Cl)o2)c1 | inactive: 7.92%
Cc1ccc2nc(COc3ccc(NC(=O)COc4ccccc4F)cc3)cc(=O)n2c1 | inactive: 3.46%
COc1ccc(NC(=O)CSc2nc3ccccc3[nH]2)cc1 | inactive: 2.76%

SMILES | activity change, negative = inhibition
Cc1ccc(C)c(N2CCN(C(=O)Cn3c(=O)c4cccn4c4ccc(F)cc43)CC2)c1 | inactive: -4.48%
CCCCC(CC)CNC(=O)CCCc1nnc2n(CCC)c(=O)c3sccc3n12 (stereo not given) | inactive: -6.62%
Cc1ccc(NC(=O)CSCn2nnc3c(=O)[nH]c(Cc4ccc(F)cc4)nc32)c(C)c1 | inactive: -16%
COc1cc2c(=O)c(C(=O)c3ccc(C)c(C)c3)cn(Cc3ccccc3)c2cc1OC | inactive: -6.79%
COc1ccc(-c2cc3nc(C)c(CCC(=O)N4CCN(c5ccccc5)CC4)c(C)n3n2)c(OC)c1 | inactive: -10%
Cc1cc(C)c2nc(NC(=O)c3ccc(S(=O)(=O)N4CCCC4)cc3)sc2c1 | inactive: -19.9%
CCOc1cc(C2C(C(=O)OC)=C(C)NC3=C2C(=O)c2ccccc23)c(Br)cc1OC (stereo not given) | inactive: -33.7%
Cc1cn2cc(C(=O)N(C)CCO)cc(N[C@@H]3CCOc4cccc(C)c43)c2n1 | inactive: -12.1%
Cc1coc2c1C(=O)C(=O)c1c-2ccc2c1CCCC2(C)C | inactive: 5.27%
CCOCCCNC(=O)Cn1nc(C)n2c(cc3cc(C)ccc32)c1=O | inactive: 2%
O=C(COc1ccccc1Cl)Nc1nc2c(s1)CCCC2 | inactive: 26%
Fc1ccc(CNCCCSc2nnnn2-c2ccccc2)cc1 | inactive: -15.5%
COc1ccc(Cn2c(C(=O)O)c(CNCc3ccc(OC)cc3OC)c3ccc(C)cc32)cc1 | inactive: -29.7%
COc1ccc(NC(=O)CSCc2cc(=O)c3cc(C)ccc3[nH]2)cc1 | inactive: -6.3%
CC(=O)OCC(=O)[C@@]1(O)[C@H](C)C[C@H]2[C@@H]3CCC4=CC(=O)C=C[C@]4(C)[C@@]3(F)[C@@H](O)C[C@@]21C | inactive: -3.89%
COc1ncnc(NS(=O)(=O)c2ccc(N)cc2)c1OC | inactive
CCOc1ccc(CNC(=O)c2ccc3c(Cl)c4c(nc3c2)CCCC4)cc1 | inactive: 3.45%
COc1cc(Cl)c(C)cc1NC(=O)CC1Oc2ccccc2NC1=O (stereo not given) | inactive: -23.2%
O=C(Oc1ccccc1)c1ccccc1O | inactive: -0.582%
COc1ccc(C(=O)Nc2ccc(-c3nc4ncccc4o3)cc2C)cc1Br | inactive: 13.6%
CCn1c(=O)c2cc(C(=O)Nc3cccc(C(F)(F)F)c3)sc2c2ccccc21 | inactive: -2.23%
CCNC(=O)CCCN1C(=O)CCn2nc(-c3cccn3C)cc21 | inactive: -12.4%

SMILES | activity change, negative = inhibition
O=S(=O)(c1ccc(C2CCCCC2)cc1)N1CCN(c2cc(Cl)ccc2Cl)CC1 | inactive: -1.31%
CCC(Sc1nc2nccnc2c(=O)n1Cc1ccccc1Cl)C(=O)NC1CCCCC1 (stereo not given) | inactive: -17.9%
Cc1ccc(CNC(=O)CSCc2ccccc2C)cc1 | inactive: 8.86%
Cc1ccc2nc(NCc3ccccc3)c3nncn3c2c1 | inactive: -4.06%
CCn1cc(C(=O)NCCc2ccc(Cl)cc2)c(=O)c2cc(S(=O)(=O)N(C)C3CCCCC3)ccc21 | inactive: -1.43%
COc1ccc(CCNC(=O)c2cc3c(=O)n4cccc(C)c4nc3n2C)cc1 | inactive: 2.13%
Cc1ccc(-c2csc(-c3c(N)c(C(=O)c4ccc5c(c4)OCO5)n4ccccc34)n2)cc1C | inactive: -23.6%
COc1ccc(C(=O)c2ccccc2)c(O)c1 | inactive: 22.2%
COc1ccc(NC(=O)CC2Oc3ccc(C)cc3NC2=O)cc1Cl (stereo not given) | inactive: -26.1%
COc1c(N2C[C@@H]3CCCN[C@@H]3C2)c(F)cc2c(=O)c(C(=O)O)cn(C3CC3)c12 | inactive: 9.73%
Cc1cc(C)cc(-n2ccn(CC(=O)NCCc3ccccc3)c(=O)c2=O)c1 | inactive: -4.21%
COc1cc2c(cc1OC)C(COc1ccc3c(C)cc(=O)oc3c1)N(C(=O)Cc1ccc(F)cc1)CC2 (stereo not given) | inactive: -17.2%
CCOc1ccc(N(CC(=O)NCc2ccc(OC)cc2)S(=O)(=O)c2c(C)[nH]c(=O)[nH]c2=O)cc1 | inactive: 4.96%
COc1cccc(C(=O)N(Cc2cccc(F)c2)C2CCS(=O)(=O)C2)c1 (stereo not given) | inactive: -7.79%
COc1ccc(Cn2ccnc2SCC(=O)Nc2ccc3c(c2)OCCO3)cc1 | inactive: 11.4%
Cc1ccc2c(c1)N(CC(=O)Nc1ccccc1C(F)(F)F)C(=O)c1cccnc1O2 | inactive: -18%
Cc1c(Cl)cccc1NC(=O)c1oc2ccc(S(=O)(=O)N3CCCCCC3)cc2c1C | inactive: -18.4%
COc1cccc(OC)c1C(=O)Nc1ccc(-c2nc3ncccc3o2)cc1 | inactive: -7.63%
COc1cccc(CN(C(=O)COc2ccc(Cl)c(C)c2)C2CCS(=O)(=O)C2)c1 (stereo not given) | inactive: -20.7%
COc1ccc(C(=O)CC(=O)c2ccc(C(C)(C)C)cc2)cc1 | inactive
Cc1ccc(Sc2ccc(N3CCC(C(=O)Nc4cc(C)cc(C)c4)CC3)nn2)cc1 | inactive: 1.53%
